# According to PMC6919601, “Identification of Plasmodium dipeptidyl aminopeptidase allosteric inhibitors by high throughput screening” (PLoS ONE, 2019):
# Screen size: about 110,000 compounds; about 230 (0.21%) showed an effect of 50% or more. The list shows a part of the results.
# Biological target: DPAP1 (Plasmodium falciparum, UniProt Q8IIJ9)
# Assay: primary screen, percent inhibition; read by cleavage of a fluorogenic dipeptide substrate; higher = more effect of the substance
# Parameters: species or system P. falciparum D10 trophozoite lysates; single well
# 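Further: 30 min substrate incubation versus DMSO and 10 µM JCP410 controls.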
# DPAP1, sequence (Q8IIJ9 whole entry, looked up): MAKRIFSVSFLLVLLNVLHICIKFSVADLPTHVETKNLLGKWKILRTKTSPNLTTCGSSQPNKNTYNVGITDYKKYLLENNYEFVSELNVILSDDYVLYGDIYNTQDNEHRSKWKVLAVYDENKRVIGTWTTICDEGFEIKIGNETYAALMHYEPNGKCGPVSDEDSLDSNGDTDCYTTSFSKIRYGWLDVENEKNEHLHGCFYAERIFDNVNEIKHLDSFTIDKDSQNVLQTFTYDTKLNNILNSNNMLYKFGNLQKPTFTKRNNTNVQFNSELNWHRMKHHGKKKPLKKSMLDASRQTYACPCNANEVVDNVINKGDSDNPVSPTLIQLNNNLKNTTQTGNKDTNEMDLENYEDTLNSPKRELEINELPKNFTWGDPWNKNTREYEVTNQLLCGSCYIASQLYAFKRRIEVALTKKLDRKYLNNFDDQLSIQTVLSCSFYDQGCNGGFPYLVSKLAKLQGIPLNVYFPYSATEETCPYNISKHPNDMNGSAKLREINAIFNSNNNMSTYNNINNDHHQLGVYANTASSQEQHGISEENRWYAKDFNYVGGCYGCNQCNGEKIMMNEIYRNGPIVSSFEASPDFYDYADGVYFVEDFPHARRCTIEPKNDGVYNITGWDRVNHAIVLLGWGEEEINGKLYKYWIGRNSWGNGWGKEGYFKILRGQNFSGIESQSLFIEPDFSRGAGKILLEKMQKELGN
row,Structure (SMILES),% Inhibition @ 10 uM [%]
1,CCCc1nc(-c2ccc(-c3cccc(OC)c3)nc2OC)no1,2.1
2,CCCOc1ccccc1C1CC(=O)NC(C)=C1C(=O)OCc1ccc(C)cc1 (stereo not drawn),-0.396
3,CC(C)(O)C#Cc1ccc(C(=O)N2CCN(c3ccccc3)CC2)cc1,-7.1
4,O=S(=O)(NC1CCCc2ccccc21)c1ccc(S(=O)(=O)N2CCCCCC2)cc1 (stereo not drawn),5.43
5,COc1cc(C2N(C(C)=O)CCN2S(=O)(=O)c2ccc(C)cc2)ccc1O (stereo not drawn),-2.87
6,OCCN1CCN(Cc2ccc(F)cc2F)CC1,3.65
7,Cc1c(C(=O)N2CCOCC2)oc2c1-c1nn(CC(=O)NCc3ccco3)cc1CC2,0.335
8,Cc1ccccc1C(=O)Nc1cc2c(ccc3ccccc32)oc1=O,4.35
9,CC1=CCC2(CO)COC(C(C)(C)CO)C1C2 (stereo not drawn),-1.86
10,O=S1(=O)C=CC(Nc2ccc(Cl)cc2)C1 (stereo not drawn),-2.62
11,O=C(c1ccc(CNS(=O)(=O)c2cccc(C(F)(F)F)c2)cc1)N1CCOCC1,2.01
12,CCCOc1ccc(Cc2nn[nH]n2)cc1,4.52
13,CCCC1(OC(=O)Nc2ccc(Cl)cc2)CCCCC1,-0.712
14,CS(=O)(=O)/C=C/[C@H](CCCCNC(=O)OCc1ccccc1)NC(=O)[C@H](CCC(=O)Nc1ccccc1)NC(=O)c1ccc(Br)cc1,15.9
15,CC(=O)c1ccc(N2CCN(Cc3ccc(Br)s3)CC2)cc1,5.56
16,COc1cccc(C[C@H](NC(=O)OC(C)(C)C)C(=O)NCC#N)c1,7.39
17,CCn1c(C(=O)O)c(CNC2CCC(C)CC2)c2ccc(C)cc21 (stereo not drawn),-5.37
18,Cc1ccc(CNc2sc(S(C)(=O)=O)nc2S(=O)(=O)c2ccc(Cl)cc2)cc1,-4.04
19,CC1(C)C2C(c3ccc([N+](=O)[O-])cc3)=NOC21C (stereo not drawn),-4.35
20,OCCN1CCN(C2Cc3cc(Cl)ccc3Sc3c(F)cccc32)CC1 (stereo not drawn),-7.63
21,Cc1[nH]c2ccccc2c1SCCNC(=O)c1ccc2c(c1)OCO2,-5.67
22,CCOc1ccc2nc(NC3=NCN(CCc4ccccc4)CN3)nc(C)c2c1,-3.5
23,CC(CNC(=O)c1cc2sc(Cl)cc2n1C)c1ccccc1 (stereo not drawn),-3.08
24,COCCn1c(C)cc(C(=O)CSc2ccc3ccccc3n2)c1C,-3.85
25,COc1ccc(CNCCC2(Cc3ccccc3)CC(C)N(C)CC2C)cc1 (stereo not drawn),1.24
26,O=C(NC1CCC(NC(=O)c2cccc(Cl)c2)CC1)c1cccc(Cl)c1 (stereo not drawn),-0.95

row,Structure (SMILES),% Inhibition @ 10 uM [%]
1,Cc1c(-c2nsc(NC(=O)c3ccc(Cl)cc3)n2)nnn1-c1ccc(F)c(Cl)c1,-2.41
2,CCCSc1nc(=O)c2c(n1C)NC(=O)CC2c1cc(Br)ccc1OC (stereo not drawn),2.25
3,CCCCOc1ccc(S(=O)(=O)n2cnc(C)c2)cc1,-2.87
4,Cc1oc(-c2cccs2)nc1CS(=O)CC(=O)NCCCN1CC(C)CC(C)C1 (stereo not drawn),-3.7
5,COCc1nc2ccccc2n1CCc1ccccc1,-0.551
6,CN(C)c1ccc(NS(=O)(=O)c2ccc(Cl)cc2)cc1,-0.318
7,Cc1ccc(C2CCN(C(=S)NC(C)(C)C)C2)cc1 (stereo not drawn),-2.72
8,COc1nc(-c2ccccc2)nc2ccccc12,-3.18
9,Cc1ccccc1NC(=O)CC1SC(Nc2ccccc2)=NC1=O (stereo not drawn),-1.89
10,CCCC(=O)N1CCN(c2ccc(NC(=O)Cc3ccccc3)cc2)CC1,-6.02
11,CC1CCN(CCCCOc2ccccc2Br)CC1,-2.98
12,Cc1ccc2c(c1)c1c3n2CCN(CCC#N)C3CCC1 (stereo not drawn),4.9
13,CO/C(O)=C1\C(C)=NC2=C(C(=O)CC(C)(C)C2)C1c1cc(CN2CCOCC2)cs1 (stereo not drawn),2.72
14,COc1cc(CC2C(=O)NC(=O)N(Cc3ccccc3)C2=O)ccc1O (stereo not drawn),-2.5
15,O=C(Nc1ccc(O)cc1)C1CCCCC1,-4.63
16,COc1cc(CN2CCN(Cc3ccccc3C(F)(F)F)CC2)cc(OC)c1OC,6.35
17,CCC(C(=O)NC1CCCCC1)n1c(C(=O)OC)cc2sc(Cl)cc21 (stereo not drawn),-6.42
18,COc1ccc(-c2cc(C(=O)N3CCOCC3)no2)cc1OC,9.13
19,COCc1cc(C)nc2sc3c(c12)NC(c1ccc(NC(C)=O)cc1)N(Cc1ccccc1)C3=O (stereo not drawn),14.5
20,O=C(O)COc1ccc(S(=O)(=O)c2ccc(OCC(=O)O)cc2)cc1,-5.28
21,CCc1nc(NC(=O)c2sc(C)nc2C)sc1C(=O)OC,0.758
22,COc1cc2nc(SCC(=O)N3CC(C)CC(C)C3)n3nc(-c4ccccc4)nc3c2cc1OC (stereo not drawn),-2.29
23,Cc1ccc(C(=O)C2=C(O)C(=O)N(CCN3CCOCC3)C2c2ccc(N(C)C)cc2)cc1 (stereo not drawn),-3.87
24,Cc1ccc(C(=O)NCCCn2ccnc2)cc1C,0.658
25,COc1ccccc1N1CCN(C(=O)c2ccc(Cl)cc2)CC1,-5.57
26,O=C(CC(c1ccccc1)N1CCOCC1)C1CC1 (stereo not drawn),-5.84

row,Structure (SMILES),% Inhibition @ 10 uM [%]
1,O=C(O)c1cc(NS(=O)(=O)c2ccc3ccccc3c2)ccc1O,-8.38
2,CCOc1ccc(N2C(=O)C(C)SC2c2ccnc3ccccc23)cc1 (stereo not drawn),-0.28
3,CC(NC(=O)c1cccc2c1-c1ccccc1C2=O)c1ccccc1 (stereo not drawn),-4.14
4,COc1ccc(-c2nc(CSCC(=O)N3CCc4ccccc4C3)c(C)o2)cc1OC,-1.05
5,COc1cccc(OC)c1C(=O)Nc1ccc(C(C)C)cc1,7.47
6,COC(=O)c1sccc1NC(=O)CSCCc1ccccn1,-1.46
7,CN(C)CCCNS(=O)(=O)c1ccc(N2CCC(c3ccc(Cl)cc3)=N2)cc1,1.38
8,CN(C)CCO/N=C1\CCCc2sccc21,-4.5
9,Cc1ccc(Oc2nc3ccccc3n3c(C)nnc23)c(C)c1,-3.41
10,Cc1cccc(C(=O)ON=C2CCSCC2)c1,-1.4
11,CCCC(C)C(=O)Nc1ccccc1C(N)=O (stereo not drawn),-12.3
12,N#CCNC(=O)[C@H](CSCc1ccc(Cl)c(Cl)c1)NC(=O)c1ccccc1,-0.214
13,COCCNC(=O)c1nn(C)c2c1CS(=O)(=O)c1ccccc1-2,-0.205
14,CSc1ncccc1C(=O)NC1CCCc2ccccc21 (stereo not drawn),3.47
15,NC(=O)CN1C(C(=O)c2ccccc2)=C(O)c2ccccc2S1(=O)=O,-1.17
16,Cc1nc2c(-c3ccccc3)c(C)nn2c(C)c1CCC(=O)NCCCc1ccccc1,2.93
17,COc1cc(OC)cc(C(=O)Nc2ccc3nc(-c4cccc(F)c4)oc3c2)c1,-4.69
18,CCCc1c(C)nc2ccc(C(=O)OCC)cc2c1Cl,-9.13
19,COc1cc2c(cc1OC)C(C)N(S(=O)(=O)c1ccc3nc(O)ccc3c1)CC2 (stereo not drawn),3
20,CCOc1ccc(-c2nc(C#N)c(NCc3ccc(C)cc3)o2)cc1,3.63
21,Cc1ccccc1OCC(=O)Nc1ccc(NC(=O)COc2ccccc2C)cc1,-1.84
22,O=C1NC(=O)C(CCc2ccncc2)(c2ccccc2)C(=O)N1,-2.6
23,COC(=O)\C(=C/C=C/C=C/N(C)C)C(C)=O,11.6
24,COc1cccc(C(=O)N2CCN(C(=O)C(c3ccccc3)c3ccccc3)CC2)c1,-1.6
25,O=C(Nc1ncc(-c2ccccc2)s1)c1ccccc1,7.99
26,CC(=O)c1cc2c(cc1NC(=O)C1CCCCC1C(=O)O)OCO2 (stereo not drawn),2.67

row,Structure (SMILES),% Inhibition @ 10 uM [%]
1,Cc1ccn2c(=O)c(C(=O)NCc3ccc4c(c3)OCO4)cnc2c1,-3.44
2,O=c1oc(-c2ccc(Br)cc2)nc2sc3c(c12)CCCC3,-2.36
3,COc1ccc2c(c1)cc1c(=O)n(CC(=O)NCCN3CCOCC3)nc(C)n12,1.68
4,Cc1ccc2oc(=O)n(Cc3ccccc3OC(C)C)c2c1,3.92
5,Cc1sc2ncn(CC(=O)NC3CCCCCC3)c(=O)c2c1S(=O)(=O)N1CCOCC1,-1.2
6,CC(=O)Nc1ccc(NC(=O)c2ccc(F)cc2)cc1,-7.06
7,COCC(=O)Nc1nc2nc(C)c(Cl)c(O)n2n1,-3.08
8,O=C(NCc1ccc2c(c1)OCO2)C1C2C=CC3(CN(Cc4ccccc4Cl)C(=O)C13)O2 (stereo not drawn),1.07
9,Cc1cc(NS(=O)(=O)c2ccc(NC(=O)COc3c(C)cccc3C)cc2)no1,-1.44
10,O=S(=O)(Nc1ccccc1CO)c1ccccc1,1.89
11,Cc1cc(C)c2c(CC(=O)N(Cc3ccco3)C3CCS(=O)(=O)C3)coc2c1 (stereo not drawn),-2.4
12,CC1CCN(C(=O)CCSCCC(=O)N2CCC(C)CC2)CC1,-0.95
13,CCOc1ccc(NC(=O)c2ccc(C)o2)cc1,-1.02
14,O=C(NCc1cccnc1)C1CCCN(c2nnc(N3CCCC3=O)s2)C1 (stereo not drawn),0.413
15,CCc1n[nH]c(SCC(=O)c2ccc(O)c(O)c2)n1,10.1
16,COC(=O)C1=C(C)NC(=O)/C1=C\c1cc2c(cc1Br)OCO2,0.484
17,N#Cc1ccc(S(=O)(=O)N2CCC(N3CCCCC3)CC2)cc1,4.18
18,C=CCc1cccc2cc(C(=O)NCc3ccc4c(c3)OCO4)c(=O)oc12,4.61
19,CC(=O)c1cccc(NC(=O)CN(Cc2ccc(C)cc2)S(=O)(=O)c2ccc(C)cc2)c1,0.795
20,CCCCOc1ccc(CC(=N)N)cc1Cl,3.25
21,CCOC(=O)c1cc(S(=O)(=O)N2CCC(Cc3ccccc3)CC2)cn1C,3.92
22,CC(C)C(=O)NC(c1ccc(Cl)cc1)c1ccc2cccnc2c1O (stereo not drawn),-8.88
23,CC1CCc2c(sc(NC(=O)COc3ccc(Cl)cc3Cl)c2C(N)=O)C1 (stereo not drawn),-1.36
24,O=S(=O)(Cc1ccccc1)Nc1ccc(F)cc1,-1.96
